# From the BET-seq Pho4 binding data (Le et al. 2018)
# This is one part of the list. These are noisy estimates, calculated here from bound and input reads.
# Molecular target: T1, Pho4 (S. cerevisiae) (UniProt P07270)
# T1 sequence: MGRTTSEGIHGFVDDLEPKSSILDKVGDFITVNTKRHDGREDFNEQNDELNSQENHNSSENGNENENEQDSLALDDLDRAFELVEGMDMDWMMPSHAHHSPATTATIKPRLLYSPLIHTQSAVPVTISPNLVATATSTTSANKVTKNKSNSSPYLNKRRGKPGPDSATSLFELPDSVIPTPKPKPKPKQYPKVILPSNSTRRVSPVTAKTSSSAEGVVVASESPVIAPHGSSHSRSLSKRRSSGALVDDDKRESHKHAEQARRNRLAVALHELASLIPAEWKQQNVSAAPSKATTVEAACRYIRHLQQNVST
# Assay: relative binding free energy (BET-seq); higher = weaker binding
# Conditions: reference: library average
row,Sequence,relative binding free energy
1,AATGTCACGTGGGGCT,-0.04 kcal/mol
2,GTGGGCACGTGTTCGG,-0.05 kcal/mol
3,AGGATCACGTGGCTTT,0.08 kcal/mol
4,TGGGTCACGTGATAAT,0 kcal/mol
5,TCAAGCACGTGTGGGT,0.04 kcal/mol
6,GCGGCCACGTGGTGGT,-0.09 kcal/mol
7,AGTCTCACGTGTGAGT,0.16 kcal/mol
8,TTGGACACGTGTTAGT,0.12 kcal/mol
9,TTAAGCACGTGGTACG,-0.22 kcal/mol
10,AGCGCCACGTGAGTGT,0.04 kcal/mol
11,TGGTACACGTGCTGGC,0.14 kcal/mol
12,ATTTGCACGTGAGTGG,0.24 kcal/mol
13,AGGGACACGTGGATTG,0.09 kcal/mol
14,TACGGCACGTGGGCGT,-0.37 kcal/mol
15,GATGCCACGTGGGAGG,-0.11 kcal/mol
16,CTTAACACGTGTAGGG,0.06 kcal/mol
17,GAGTTCACGTGTTGAA,0.28 kcal/mol
18,ATTTGCACGTGTTGTT,-0.04 kcal/mol
19,CAAGGCACGTGAGAGG,0.05 kcal/mol
20,GGCGGCACGTGTGTTC,0.1 kcal/mol
21,TCGTGCACGTGTCGTG,-0.06 kcal/mol
22,GTGTGCACGTGATGCG,0 kcal/mol
23,TGTATCACGTGGTATT,0.07 kcal/mol

row,Sequence,relative binding free energy
1,TGTACCACGTGTTTTT,-0.1 kcal/mol
2,AGTATCACGTGCGGGA,0.12 kcal/mol
3,AGTTCCACGTGAGGGA,0.35 kcal/mol
4,GCCGTCACGTGTTGGT,0.08 kcal/mol
5,AAAGTCACGTGGTGGC,0.2 kcal/mol
6,ACCTGCACGTGGGGTG,-0.11 kcal/mol
7,GTGCACACGTGGTATT,-0.02 kcal/mol
8,GGAAGCACGTGGTCGT,-0.16 kcal/mol
9,AGCTACACGTGGAGGT,0.04 kcal/mol
10,TTGTCCACGTGTCTTT,0.04 kcal/mol
11,GGGGGCACGTGATGGG,0.05 kcal/mol
12,TTGGGCACGTGTGGCT,0.03 kcal/mol
13,CTTGTCACGTGTAATT,0.16 kcal/mol
14,GTGAACACGTGGAGAG,-0.03 kcal/mol
15,TGTTTCACGTGGGTGT,0.21 kcal/mol
16,TAAGTCACGTGATGTA,0.24 kcal/mol
17,TCCAGCACGTGTTGTT,0.07 kcal/mol
18,ATCAGCACGTGTGGGT,0 kcal/mol
19,AGGGACACGTGCGCTG,-0.03 kcal/mol
20,TGTGCCACGTGGTTTA,-0.2 kcal/mol
21,AAAGACACGTGTGAGT,0.16 kcal/mol
22,TAGCTCACGTGTAGGT,0.18 kcal/mol
23,GAGTTCACGTGAGCTT,0.36 kcal/mol

row,Sequence,relative binding free energy
1,TCGTGCACGTGGGTTG,-0.15 kcal/mol
2,ATCGGCACGTGGCGGG,-0.06 kcal/mol
3,TTCAACACGTGTTGTT,-0.04 kcal/mol
4,GGTTACACGTGGCTAT,0.12 kcal/mol
5,CAGTTCACGTGGTAGA,0.25 kcal/mol
6,TCGATCACGTGGAGGT,0.16 kcal/mol
7,GTGGACACGTGGGCAT,-0.14 kcal/mol
8,GTACTCACGTGTTGGG,0.13 kcal/mol
9,TGGGTCACGTGTATTT,0.12 kcal/mol
10,GTCGGCACGTGGCGGG,-0.21 kcal/mol
11,GGTATCACGTGTCGGG,0.25 kcal/mol
12,ATTTACACGTGTTATT,0.12 kcal/mol
13,ATTGGCACGTGAGGTG,0.03 kcal/mol
14,AGAGTCACGTGAAGTA,0.29 kcal/mol
15,GGCAGCACGTGGTGTT,-0.15 kcal/mol
16,AGTGGCACGTGAATTA,0.12 kcal/mol
17,ATGGACACGTGTATAT,-0.02 kcal/mol
18,TGGTCCACGTGGGTAA,-0.25 kcal/mol
19,GAAGTCACGTGGGGCA,-0.1 kcal/mol
20,CTTTGCACGTGGTTTC,-0.03 kcal/mol
21,GTGGCCACGTGTGGTA,0 kcal/mol
22,TAGAACACGTGTTTTT,-0.05 kcal/mol
23,ATTAGCACGTGTGGTA,-0.05 kcal/mol

row,Sequence,relative binding free energy
1,AGTTTCACGTGACATG,0.32 kcal/mol
2,TTGGCCACGTGTGATA,0.04 kcal/mol
3,GGACACACGTGGTGGG,-0.02 kcal/mol
4,ATAGACACGTGTTTGT,-0.07 kcal/mol
5,TGTGTCACGTGGCAGC,0.11 kcal/mol
6,TGTTGCACGTGTGTAT,0.06 kcal/mol
7,GAGAACACGTGTAGGT,0.11 kcal/mol
8,AGTTGCACGTGGTGGC,0.01 kcal/mol
9,TATAACACGTGTTGTG,-0.06 kcal/mol
10,AGTCTCACGTGTTAAG,0.2 kcal/mol
11,CGGTACACGTGGTTCT,0.13 kcal/mol
12,TGCGCCACGTGGAGGG,-0.19 kcal/mol
13,AACTGCACGTGGTGGA,0.05 kcal/mol
14,CAGGGCACGTGGTGGA,-0.26 kcal/mol
15,AGCGACACGTGAGGTA,0.31 kcal/mol
16,ATTTTCACGTGTGAGT,0.4 kcal/mol
17,AGTAGCACGTGAGGTC,0.19 kcal/mol
18,ATAGGCACGTGTAGGA,-0.1 kcal/mol
19,GTGGGCACGTGGGGGT,-0.2 kcal/mol
20,GTGGGCACGTGGTTCA,-0.1 kcal/mol
21,ACGTGCACGTGGTGAA,-0.17 kcal/mol
22,GTTCGCACGTGTGGGA,0.17 kcal/mol
23,GGAGGCACGTGTACGT,-0.22 kcal/mol

row,Sequence,relative binding free energy
1,TTGTACACGTGTCGTG,0.11 kcal/mol
2,AAGTTCACGTGATAAA,0.46 kcal/mol
3,TTTTGCACGTGTGAGA,0.17 kcal/mol
4,GGAGGCACGTGTACTG,-0.11 kcal/mol
5,AGGTTCACGTGGTGGG,0.32 kcal/mol
6,TGATACACGTGAAGTG,0.2 kcal/mol
7,CTGCGCACGTGGTGGC,-0.21 kcal/mol
8,GTCTTCACGTGGTAGT,0.3 kcal/mol
9,CGTAACACGTGTTTGA,0.08 kcal/mol
10,TTCGTCACGTGGATGG,0.13 kcal/mol
11,GTATACACGTGAGAGG,0.3 kcal/mol
12,GTTGTCACGTGGGGTG,0.03 kcal/mol
13,CGGTTCACGTGAATGT,0.36 kcal/mol
14,GGGTGCACGTGAAGAA,0.31 kcal/mol
15,TTTCTCACGTGGAGAT,0.15 kcal/mol
16,GCTGTCACGTGGTTTC,0.21 kcal/mol
17,TAATACACGTGGTTGG,-0.04 kcal/mol
18,CTTATCACGTGTAATT,0.15 kcal/mol
19,TTTTGCACGTGCGTCT,-0.04 kcal/mol
20,TTCGGCACGTGCGGGC,-0.08 kcal/mol
21,AGATACACGTGGTGGC,0.03 kcal/mol
22,TGGTGCACGTGTTGGC,0.07 kcal/mol
23,AATTACACGTGTTGAG,0.02 kcal/mol
